The supplement of paper PMC4604168 (melanoma cell lines)
The list shows a part of the results. Single values are uncertain, as repeats are few or missing.

Experiments:
Assay in all cases: cell count relative to DMSO control; melanoma cells; higher = more viable cells
Details in all cases: library dose: standard library concentration; 72 h
[1] = system: G361
[2] = system: IPC-298
[3] = system: IST-MEL1
[4] = system: LB2518-MEL
[5] = system: LOXIMVI
[6] = system: MEL-HO
[7] = system: MZ2-MEL
[8] = system: MeWo
[9] = system: RPMI7951
[10] = system: RVH-421
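Also: cells treated in 1,536-well plates, then fixed and DAPI-stained, with nuclei counted from automated high-throughput microscope images.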

| SMILES | cell count [1] | cell count [2] | cell count [3] | cell count [4] | cell count [5] | cell count [6] | cell count [7] | cell count [8] | cell count [9] | cell count [10] |
| --- | --- | --- | --- | --- | --- | --- | --- | --- | --- | --- |
| NC1(c2ccc(-c3nc4ccn5c(=O)[nH]nc5c4cc3-c3ccccc3)cc2)CCC1 + OCc1c[nH]c2ccccc12 [Indole-3-carbinol] (first compound 2 µM, partner dose 4 µM) | 94.1% | 92.5% | 87.9% | 64.2% | 104% | 88.5% | 89.3% | 75.6% | 69.9% | 78.6% |
| NC1(c2ccc(-c3nc4ccn5c(=O)[nH]nc5c4cc3-c3ccccc3)cc2)CCC1 + C=CCn1c(=O)c2cnc(Nc3ccc(N4CCN(C)CC4)cc3)nc2n1-c1cccc(C(C)(C)O)n1 [MK1775] (first compound 2 µM, partner dose 0.1 µM) | 82.7% | 99.9% | 68.5% | 67.4% | 67.8% | 63.3% | 107% | 64.2% | 66.7% | 81.1% |
| CS(=O)(=O)c1ccc(C(=O)Nc2ccc(Cl)c(-c3ccccn3)c2)c(Cl)c1 [vismodegib] + CC(C)(C)c1cnc(CSc2cnc(NC(=O)C3CCNCC3)s2)o1 [SNS-032] (first compound 5 µM, partner dose 0.05 µM) | 78.6% | 114% | 108% | 74.8% | 86.5% | 101% | 105% | 109% | 40.7% | 81.9% |
| C=C(c1ccc(C(=O)O)cc1)c1cc2c(cc1C)C(C)(C)CCC2(C)C [Bexarotene] + NCC(=O)Nc1ccc(-n2nc(C(F)(F)F)cc2-c2ccc3c(ccc4ccccc43)c2)cc1 [OSU03012] (first compound 10 µM, partner dose 5 µM) | 55.2% | 64.5% | 81.4% | 105% | 80.9% | 70.5% | 83.8% | 89.1% | 87.7% | 84.5% |
| CN(c1ncccc1CNc1nc(Nc2ccc3c(c2)CC(=O)N3)ncc1C(F)(F)F)S(C)(=O)=O + Cn1cncc1[C@@](N)(c1ccc(Cl)cc1)c1ccc2c(c1)c(-c1cccc(Cl)c1)cc(=O)n2C [tipifarnib] (first compound 0.4 µM, partner dose 0.05 µM) | 72.7% | 83.3% | 75.6% | 77.7% | 81.6% | 95.2% | 91.5% | 85.3% | 75.5% | 75.3% |
| NC1(c2ccc(-c3nc4ccn5c(=O)[nH]nc5c4cc3-c3ccccc3)cc2)CCC1 + Cn1cncc1[C@@](N)(c1ccc(Cl)cc1)c1ccc2c(c1)c(-c1cccc(Cl)c1)cc(=O)n2C [tipifarnib] (first compound 2 µM, partner dose 0.05 µM) | 69.5% | 87.2% | 68.1% | 48.2% | 76.5% | 62.2% | 95.2% | 73.7% | 93.4% | 77.9% |
| CN(c1ncccc1CNc1nc(Nc2ccc3c(c2)CC(=O)N3)ncc1C(F)(F)F)S(C)(=O)=O + Nc1nc(F)nc2c1ncn2[C@@H]1O[C@H](CO)[C@@H](O)[C@@H]1O [fludarabine] (first compound 0.4 µM, partner dose 1 µM) | 74.5% | 69.8% | 76.8% | 68.8% | 54.4% | 58.1% | 67.2% | 88% | 41% | 97.6% |
| CS(=O)(=O)c1ccc(C(=O)Nc2ccc(Cl)c(-c3ccccn3)c2)c(Cl)c1 [vismodegib] + Nc1nc(F)nc2c1ncn2[C@@H]1O[C@H](CO)[C@@H](O)[C@@H]1O [fludarabine] (first compound 5 µM, partner dose 1 µM) | 77.6% | 73.4% | 75.6% | 105% | 134% | 88.1% | 129% | 103% | 73% | 126% |
| CN(c1ncccc1CNc1nc(Nc2ccc3c(c2)CC(=O)N3)ncc1C(F)(F)F)S(C)(=O)=O + CO[C@H]1C[C@@H]2CC[C@@H](C)[C@@](O)(O2)C(=O)C(=O)N2CCCC[C@H]2C(=O)O[C@H]([C@H](C)C[C@@H]2CC[C@@H](OCCO)[C@H](OC)C2)CC(=O)[C@H](C)/C=C(\C)[C@@H](O)[C@@H](OC)C(=O)[C@H](C)C[C@H](C)/C=C/C=C/C=C/1C [everolimus] (first compound 0.4 µM, partner dose 0.1 µM) | 61.6% | 79.1% | 78.4% | 80.4% | 84.2% | 74.4% | 75.6% | 87.5% | 78% | 92.9% |
| CCCS(=O)(=O)Nc1ccc(F)c(C(=O)c2c[nH]c3ncc(Cl)cc23)c1F + COc1ccc(-c2ccc3c(N4CCOCC4)nc(N4C[C@@H](C)O[C@@H](C)C4)nc3n2)cc1CO [KU0063794] (first compound 0.4 µM, partner dose 0.1 µM) | 50% | 55.1% | 73.7% | 82.9% | 81.8% | 71.6% | 88.7% | 76.8% | 94.4% | 70.3% |
| CS(=O)(=O)c1ccc(C(=O)Nc2ccc(Cl)c(-c3ccccn3)c2)c(Cl)c1 [vismodegib] + C=C(c1ccc(C(=O)O)cc1)c1cc2c(cc1C)C(C)(C)CCC2(C)C [Bexarotene] (first compound 5 µM, partner dose 10 µM) | 63.1% | 69% | 78.5% | 87.9% | 94% | 76.5% | 64.2% | 75.2% | 61.8% | 111% |
| CN(c1ncccc1CNc1nc(Nc2ccc3c(c2)CC(=O)N3)ncc1C(F)(F)F)S(C)(=O)=O + C=CCNC1=C2C[C@@H](C)C[C@H](OC)[C@H](O)[C@@H](C)/C=C(\C)[C@H](OC(N)=O)[C@@H](OC)/C=C\C=C(/C)C(=O)NC(=CC1=O)C2=O [Tanespimycin] (first compound 0.4 µM, partner dose 0.01 µM) | 63.7% | 86.1% | 76.7% | 70% | 126% | 94% | 83.1% | 101% | 14% | 77.6% |
| NC1(c2ccc(-c3nc4ccn5c(=O)[nH]nc5c4cc3-c3ccccc3)cc2)CCC1 + O=C1NC(=O)/C(=C/c2ccc(-c3ccc(F)cc3O)o2)S1 [AS252424] (first compound 2 µM, partner dose 5 µM) | 67.4% | 88.2% | 78.9% | 65.8% | 87.1% | 56.9% | 89.1% | 65% | 95.9% | 71.5% |
| NC1(c2ccc(-c3nc4ccn5c(=O)[nH]nc5c4cc3-c3ccccc3)cc2)CCC1 + Clc1ccc(Nc2nnc(Cc3ccncc3)c3ccccc23)cc1 [vatalanib] (first compound 2 µM, partner dose 10 µM) | 62.1% | 49% | 52.3% | 52.9% | 43.1% | 39.9% | 50.8% | 44.8% | 67% | 58.1% |
| CS(=O)(=O)c1ccc(C(=O)Nc2ccc(Cl)c(-c3ccccn3)c2)c(Cl)c1 [vismodegib] + NC(=O)Nc1cc(-c2cccc(F)c2)sc1C(=O)N[C@H]1CCCNC1 [AZD7762] (first compound 5 µM, partner dose 0.1 µM) | 91.1% | 102% | 153% | 80.9% | 82.7% | 88.7% | 113% | 71.9% | 40.7% | 165% |
| CCCS(=O)(=O)Nc1ccc(F)c(C(=O)c2c[nH]c3ncc(Cl)cc23)c1F + O=C(Nc1cccc(Cl)c1)Nc1ncc(CCNc2ncnc3ccsc23)s1 [SNS314] (first compound 0.4 µM, partner dose 0.004 µM) | 74% | 75.7% | 59.3% | 83.8% | 81.6% | 68.8% | 61.2% | 66.3% | 75.6% | 89.3% |
| NC1(c2ccc(-c3nc4ccn5c(=O)[nH]nc5c4cc3-c3ccccc3)cc2)CCC1 + O=c1cc(-c2cccc3c2Sc2ccccc2S3)oc(N2CCOCC2)c1 [KU55933] (first compound 2 µM, partner dose 5 µM) | 71.6% | 90.9% | 79.2% | 81.5% | 116% | 60.4% | 78.9% | 85% | 92.5% | 79.3% |
| C=C(c1ccc(C(=O)O)cc1)c1cc2c(cc1C)C(C)(C)CCC2(C)C [Bexarotene] + c1cc(-c2cnn3cc(-c4ccc(OCCN5CCCCC5)cc4)cnc23)ccn1 [Dorsomorphin] (first compound 10 µM, partner dose 2 µM) | 43.3% | 76.2% | 85% | 95.8% | 100% | 84% | 82.3% | 69% | 69.9% | 103% |
| C=C(c1ccc(C(=O)O)cc1)c1cc2c(cc1C)C(C)(C)CCC2(C)C [Bexarotene] + OCCn1cc(-c2cnc3nnn(Cc4ccc5ncccc5c4)c3n2)cn1 [PF04217903] (first compound 10 µM, partner dose 5 µM) | 66.7% | 88.8% | 87.4% | 63.8% | 75.5% | 88.1% | 84.9% | 78.3% | 59.9% | 102% |
| NC1(c2ccc(-c3nc4ccn5c(=O)[nH]nc5c4cc3-c3ccccc3)cc2)CCC1 + CC(C)C[C@H](NC(=O)[C@H](Cc1ccccc1)NC(=O)c1cnccn1)B(O)O [Bortezomib] (first compound 2 µM, partner dose 0.005 µM) | 1.16% | 12.6% | 5.86% | 1.79% | 27.2% | 31.9% | 5.55% | 11% | 3.95% | 84.4% |
| NC1(c2ccc(-c3nc4ccn5c(=O)[nH]nc5c4cc3-c3ccccc3)cc2)CCC1 + C#Cc1cccc(Nc2ncnc3cc(OCCOC)c(OCCOC)cc23)c1 [erlotinib] (first compound 2 µM, partner dose 4 µM) | 71.1% | 57.8% | 74.7% | 60.4% | 50.7% | 50.3% | 70.9% | 61.9% | 56.9% | 74.1% |
| CCCS(=O)(=O)Nc1ccc(F)c(C(=O)c2c[nH]c3ncc(Cl)cc23)c1F + CN(C)S(=O)(=O)c1ccc2c(c1)/C(=C/c1cc3c([nH]1)CCCC3)C(=O)N2 [SU6656] (first compound 0.4 µM, partner dose 2 µM) | 50.9% | 62.2% | 63.8% | 64.1% | 101% | 79.5% | 85.9% | 78.8% | 48.5% | 84.6% |
